According to PubChem BioAssay AID624417 (National Center for Advancing Translational Sciences (NCATS), 2012):
Out of some 410,000 compounds screened, about 6,400 (1.6%) were called active. The inconclusive results got no clear call from the source; some entries with a clear call stand among them for comparison. The call rests on the fitted dose curve; in most records, active means well fitted inhibition curve with a large enough effect; inconclusive means small, poorly fitted or top-dose-only effect; inactive means no such curve, though single readings can be large or run the other way. A potency beside an inconclusive call is a rough fit, not a confirmed value.

The compounds below were run against Glucagon-like peptide 1 receptor (Homo sapiens) (UniProt P43220) (assay: qHTS of GLP-1 Receptor Inverse Agonists (Inhibition Mode)). Details: HEK293 GLP-1R CRE-luciferase, luminescence, 24 h, GLP-1R form is constitutively active; activity change, negative = inhibition: at 38.3 µM (top of the series) unless noted.
Procedure, shortened: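 Luminescence readout: a drop in cAMP-driven luciferase signal flags inverse agonism at a constitutively active GLP-1R stably expressed in HEK293. Compound exposure lasted 24 hr at 37 deg C, 5% CO2.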
Further: nearly all actives have a fitted effect of over 55% in size.
On the % scale 0 is the no-effect control and ±100 the full control effect; potency means the concentration at half of the fitted maximal effect; tags describe the fitted curve by direction and shape.

Chain of UniProt P43220 (P43220 whole entry, looked up): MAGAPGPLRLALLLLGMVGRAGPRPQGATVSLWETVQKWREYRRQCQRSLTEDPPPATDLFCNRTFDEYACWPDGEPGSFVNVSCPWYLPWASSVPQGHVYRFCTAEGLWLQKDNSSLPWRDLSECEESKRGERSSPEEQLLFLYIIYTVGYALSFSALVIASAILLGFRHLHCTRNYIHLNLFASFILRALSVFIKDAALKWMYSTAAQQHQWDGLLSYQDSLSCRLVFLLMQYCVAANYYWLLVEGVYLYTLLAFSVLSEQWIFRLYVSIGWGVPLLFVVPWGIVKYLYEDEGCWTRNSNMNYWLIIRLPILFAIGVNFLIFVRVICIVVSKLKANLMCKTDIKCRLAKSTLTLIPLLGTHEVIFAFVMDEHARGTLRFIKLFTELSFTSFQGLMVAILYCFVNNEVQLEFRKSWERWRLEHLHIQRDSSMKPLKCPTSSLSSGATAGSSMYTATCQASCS

Activity change, negative = inhibition, inactive:
O=C(CSc1nc2ccccc2c(=O)[nH]1)c1ccccc1 39.5%
CC(=O)Nc1ccc(N(C(=O)c2ccco2)C(C(=O)NC2CCCC2)c2ccc(N(C)C)cc2)cc1 (configuration not stated) 9.48%
Cc1ccc(C(=O)c2coc3c2C(=O)C(=O)c2ccccc2-3)cc1 0%
COCCNC(=O)c1cc2c(Cl)nc3ccc(C)cc3c2s1 18.1%
COc1cc(OC)c(Nc2ncnc3onc(-c4cccc(Cl)c4)c23)cc1Cl 0.444%
COc1cc(C2NC(=O)NC(c3ccccc3)=C2C(C)=O)cc(Cl)c1OCC(=O)O (configuration not stated) 14.6% [at 7.66 µM]
Cn1nnnc1SCC(=O)NNC(=O)c1ccc(F)cc1 1.24%
Cc1cc(=O)oc2c(C)c(OCC(=O)N(C)C)ccc12 11.4%
COc1cc(OC)cc(C(=O)NCc2ccc3[nH]c(C)cc3c2)c1 -3.58%
CCN1C(=S)N[C@@H](c2cccs2)C(C(=O)OC)=C1C 5.54%
CCOC(=O)c1c(C)sc(-c2c(-c3ccc(OC)c(F)c3)[nH]c3c2c(=O)[nH]c(=O)n3C)c1O -5.15%

Potency, inconclusive:
Cc1cc(C)n(-c2cc(C)c(C)cc2Br)n1 28.2 µM [inhibitor, single point]
CCOC(=O)C(C(=O)Nc1ccc(C)cc1)C1CCCCC1 (configuration not stated) 8.91 µM [inhibitor, partial curve, poor fit]
CCN(CC)S(=O)(=O)c1cccc(NC(=O)/C=C/c2cccc([N+](=O)[O-])c2)c1 22.4 µM [inhibitor, partial curve, poor fit]
Cc1cc(C)cc(NC(=O)C2(c3cccs3)CCOCC2)c1 11.2 µM [inhibitor, single point]
CCc1ccc(/C=N/NC(=O)c2nnn(-c3nonc3N)c2CN2CCc3ccccc32)cc1 7.94 µM [inhibitor, partial curve, poor fit]
COc1ccc(C2=NOC(Cn3nc(C(=O)NCc4ccccc4OC)cc3-c3ccccc3)C2)cc1 (configuration not stated) 10 µM [inhibitor, partial curve, poor fit]
CCc1ccc(NC(=O)CSc2nnc(-c3cc4occc4n3C)n2-c2ccccc2C)cc1 28.2 µM [inhibitor, single point]
CCCCNC(=O)C(CC)(ONc1ccccc1C(F)(F)F)c1ccccc1OC (configuration not stated) 22.4 µM [inhibitor, single point]
Clc1ccccc1Cc1cn2cc(-c3ccccc3)nc2s1 1.26 µM [inhibitor, full curve, poor fit]
COc1cccc(C(O)c2nc(/C=C/c3ccc(C(F)(F)F)cc3)cs2)c1 (configuration not stated) 28.2 µM [inhibitor, single point]
Cc1n[nH]c(C)c1S(=O)(=O)N(CC(=O)NC1CCCC1)c1ccc(C(C)C)cc1 28.2 µM [inhibitor, single point]
COC(=O)C1=C(COc2ccccc2)NC(=O)NC1c1ccc(Br)cc1 (configuration not stated) 28.2 µM [inhibitor, single point]
COc1cccc(N(CC(=O)N2CCC(C)CC2)S(=O)(=O)c2ccc(C)cc2)c1 12.6 µM [inhibitor, partial curve, poor fit]
CC(=O)Oc1ccc(C(=O)Nc2cccc(NC(=O)c3ccco3)c2)cc1 11.2 µM [inhibitor, partial curve]
Cc1ccc(CN(Cc2ccco2)C(=O)c2oc3c(C)c(C)ccc3c2C)cc1 15.8 µM [inhibitor, single point]
CCc1ccc(NC(=O)C/C(C)=N/NC(=O)COc2ccccc2C)cc1 28.2 µM [inhibitor, single point]
CC(OC(=O)c1ccc(Cl)cc1O)C(=O)NCCC1=CCCCC1 (configuration not stated) 20 µM [inhibitor, single point]
Oc1ccccc1C1=NN(c2ccccc2)C(c2ccc(F)cc2)C1 (configuration not stated) 10 µM [inhibitor, single point]
COc1ccc(F)c(CN2CCCC(CNS(=O)(=O)c3cccc4cccnc34)C2)c1 (configuration not stated) 4.47 µM [inhibitor, partial curve]
N#Cc1c(SC(C(=O)O)c2ccccc2)nc2c(c1-c1cccs1)CCCC2 (configuration not stated) 15.8 µM [inhibitor, single point]
CCN(CC)S(=O)(=O)c1cccc(NC(=O)CCSc2ccc(Cl)cc2)c1 12.6 µM [inhibitor, single point]
COc1ccc(OC)c(CCNC(=O)c2cccc(NC(=O)C3=C(C)OCCS3)c2)c1 3.55 µM [inhibitor, partial curve, poor fit]
CN(C)CCCN(C(=O)c1cccs1)c1nc2cc3c(cc2s1)OCO3 3.55 µM [inhibitor, partial curve]
COc1cccc(NC(=O)C2CCN(S(=O)(=O)c3ccc4c(c3)OCCO4)CC2)c1 28.2 µM [inhibitor, single point]
O=C(c1ccccc1)N1CCCN(c2nccc(C(F)(F)F)n2)CC1 28.2 µM [inhibitor, single point]
CCN1C(=O)c2cccc3c(S(=O)(=O)N(C(=O)c4cccnc4)c4ccc(OC)cc4)ccc1c23 28.2 µM [inhibitor, single point]
CC(C)(C)C(=O)Nc1nc2c(s1)COc1ccccc1-2 20 µM [inhibitor, single point]
O=C(Cc1ccc(Cl)cc1Cl)Nc1ccc(OC(F)F)c(Cl)c1 20 µM [inhibitor, single point]
CCC(CC)C(=O)Nc1ccc2nc(SCC(=O)N3c4ccccc4CC3C)sc2c1 (configuration not stated) 5.01 µM [inhibitor, partial curve]
COc1cc(/C=C/c2ccc3cccc(O)c3n2)ccc1O 3.16 µM [inhibitor, full curve, poor fit]

Potency, active:
O=S(=O)(c1ccc2ccccc2c1)N1CCN(C(=S)Nc2ccc(F)c(Cl)c2)CC1 4.47 µM
